# Experimental data: PubChem BioAssay AID445 (National Center for Advancing Translational Sciences (NCATS), 2006)
# Among all 110,000 compounds or so, about 40 (0.04%) were called active. The inconclusive results got no clear call from the source; some entries with a clear call stand among them for comparison. Calls come from the whole dose curve; as a rule, active = well fitted curve in the direction sought with a large enough effect in the signal ratio (not every such curve was filed as active); inconclusive = small, poorly fitted or top-dose-only effect, or a change in a side signal; inactive = flat fitted curve, though single readings scatter; the % refers to the signal ratio. Potencies beside an inconclusive call are fits to weak or partial responses and may not hold up.
# Assay: IkB Signaling;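 for IkBa stabilization activation: 0% = basal untreated cells and 100% = reference inhibitor full response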
# Details: ABC-DLBCL IkBa-CBG/CBR dual luciferase ratio (green luciferase fused to IkBa over red control in OCI-Ly3 lymphoma cells), 4 h; IkBa stabilization activation: at 57.1 µM (top of the series), scaled: untreated 0%, proteasome inhibitor 100% unless noted
# Outline: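 Curves were fitted separately to fusion (green), unfused (red) and ratio luminescence, then classed by r2, magnitude and activity. Cells: OCI-Ly3, 4 h compound plus doxycycline at 37C; 10 uM MG-132 defined full response.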
# Potency is the fitted concentration of half-maximal effect.
Compound,IkBa stabilization activation,Potency
CCCN(CCC)S(=O)(=O)c1ccc2c(c1)N(CC(=O)NC(C)c1ccccc1)C(=O)CS2 (centres undefined),inconclusive: -0.194% [signal inhibitor],
COc1ccc(NC(=O)c2ccc(S(=O)(=O)N(C)C)cc2)cc1OC,inactive: 1.16%,
CCN(c1cccc(C)c1)S(=O)(=O)c1nnc(NC(=O)c2ccccc2Cl)s1,inconclusive: 3.01% [signal inhibitor],
COc1ccccc1N1CCN(C(=O)c2cc(-c3ccc(F)cc3)on2)CC1,,inconclusive: 25.1 µM [signal inhibitor]
CCOc1cc2c3c(c1)C1(C(=O)N3C(C)(C)C=C2C)C(C#N)=C(N)Oc2cc(O)ccc21 (centres undefined),,"inconclusive: 25.1 µM [signal inhibitor, partial curve]"
Nc1cc(Cl)c(N)cc1Cl,inactive: 4.62%,
COc1ccc(CCNC(=O)C(=O)NCC(c2ccc3c(c2)OCO3)N2CCOCC2)cc1OC (centres undefined),inconclusive: -0.329% [signal inhibitor],
Cc1cccn2c(=O)c(C(=O)NCCc3ccccc3)c(O)nc12,inconclusive: 12.4% [signal inhibitor],
CC(=O)Nc1ccc(Oc2cc(C#N)c(C#N)cc2N2CCCCCC2)cc1,inconclusive: 11.3% [signal inhibitor],
CCOc1ccc(NC(=O)c2oc3ccccc3c2NC(=O)c2c(F)cccc2F)cc1,inconclusive: -1.37% [signal inhibitor],
CCOc1ccc2c(c1)NC(c1cccs1)=NC(c1ccc(F)cc1)=N2,inconclusive: 1.89% [signal inhibitor],
COc1ccc(N2CCN(c3nc4ccc(C)cc4n4nnnc34)CC2)cc1,inactive: -1.38%,
COc1ccc2occ(CC(=O)Nc3ccc(S(=O)(=O)Nc4nc(C)cc(C)n4)cc3)c2c1,inconclusive: 3.09% [signal inhibitor],
COc1ccc(C2C(C(=O)Nc3ccc(C)cc3C)=C(C)Nc3nc4ccccc4n32)c(OC)c1 (centres undefined),inconclusive: 9.14% [signal inhibitor],
O=c1ccn([C@@H]2O[C@@H](COP(=O)(O)OP(=O)(O)O)[C@H](O)[C@@H]2O)c(=O)[nH]1,inactive: -2.33%,
O=C1CSC2(C(=O)N(Cc3ccccc3)c3ccccc32)N1c1ccc(Cl)cc1 (centres undefined),inactive: 8.69%,
COC(=O)c1cc(NC(=O)Cn2nc(-c3ccc(C)c(C)c3)ccc2=O)cc(C(=O)OC)c1,inconclusive: 0.963% [signal inhibitor],
O=C(CN1C(=O)COc2ccc(S(=O)(=O)Nc3ccccc3)cc21)Nc1cccc(Cl)c1,inconclusive: 2.72% [signal inhibitor],
COC(=O)c1ccc(Cn2nnc3c(=O)[nH]c(C4CCCN(S(=O)(=O)c5cccc(Cl)c5)C4)nc32)cc1 (centres undefined),inconclusive: 6.18% [signal inhibitor],
CC1=C2[C@H](/C=C(\C)C(=O)O)CC[C@@H](C)[C@H]2CC1,inactive: 0.158%,
Cc1cc(C)cc(NS(=O)(=O)c2ccc3[nH]cc(C(=O)NCc4ccccc4Cl)c(=O)c3c2)c1,inactive: 2.87%,
Cc1ccc(-c2nc(Cn3c(=O)cc(-c4ccccc4)c4c(C)nn(C)c43)c(C)o2)cc1,inactive: -0.408%,

Compound,IkBa stabilization activation,Potency
Cc1ccc(OCCn2nnc3sc4c(c3c2=O)CCC(C)C4)cc1 (centres undefined),inactive: -1.06%,
Cc1nn(-c2ccccc2)c2c1C1(C(=O)N(C)c3ccccc31)N(c1ccccc1)C(=O)N2 (centres undefined),,"inconclusive: 31.6 µM [signal inhibitor, partial curve]"
CCc1c(-c2ccccc2)nc2ccccc2c1C(=O)NCc1ccc(C)cc1,inconclusive: -0.961% [signal inhibitor],
CCOc1ccc(C(=O)N2CCC(c3noc(-c4ccc(S(=O)(=O)N5CCCC5)cc4)n3)CC2)cc1,inconclusive: -1.08% [signal inhibitor],
CCC(=O)N1CCc2cc(S(=O)(=O)Nc3ccc4c(c3)OCCO4)ccc21,inconclusive: 1.21% [signal inhibitor],
CCN(C(=O)COC(=O)c1cccnc1SC)C1CCS(=O)(=O)C1 (centres undefined),inconclusive: 4.27% [signal inhibitor],
c1ccc2c(c1)nnn1c3ccccc3nc21,inactive: -6.66%,
Cc1cc2c(cc1S(=O)(=O)CCC(=O)NCCc1ccccc1)OCC(=O)N2,inconclusive: 4.06% [signal inhibitor],
Cc1cc(C(=O)OCC(=O)N2CCOCC2)c2ccccc2n1,inactive: -0.356%,
Cc1ccc(NC(=O)CN2CCSc3ccc(S(=O)(=O)N4CCCC4)cc32)cc1C,inconclusive: 1.08% [signal inhibitor],
CC(C)(C)C(=O)NC1(C(F)(F)F)C(=O)Nc2c1c(=O)[nH]c(=O)n2-c1ccccc1 (centres undefined),inactive: 0.448%,
COc1cc(OC)c(NS(=O)(=O)c2cc(-c3cnc(C4CC4)o3)ccc2C)cc1Cl,inconclusive: -0.671% [signal inhibitor],
Cc1ccccc1CSc1ncc(CO)n1Cc1ccc(F)cc1,inconclusive: 1.91% [signal inhibitor],
Clc1ccccc1-c1nccc(NCc2cccs2)n1,"inactive: 3.11% [at 11.4 µM, scaled: untreated 0%, proteasome inhibitor 100%]",
COC(=O)c1ccccc1NC(=O)CSc1nnc(COc2cccc(OC)c2)n1C,inactive: -0.717%,
COc1ccc(-c2cn3cccnc3n2)cc1NC(=O)c1cc(C)cc(C)c1,inconclusive: 1.28% [signal inhibitor],
Cc1cc(Cl)ccc1OCC(=O)N(Cc1ccco1)Cc1ccco1,inconclusive: -0.485% [signal inhibitor],
NC(=O)CSc1nnc(-c2cc3ccccc3o2)n1Cc1ccccc1,inactive: 0.923%,
Cc1ccccc1Cc1c(C)nc2nc(SCC(=O)NCc3ccco3)nn2c1C,inconclusive: 17.2% [signal inhibitor],
Cc1ccc(-n2ncc(C(=O)N3CCN(c4ccc(Cl)cc4)CC3)c2C2CCN(C(=O)OC(C)(C)C)CC2)c(C)c1,inconclusive: -1.76% [signal inhibitor],
Fc1cccc(CSc2ncnc3c2ncn3[C@H]2CCCS2)c1,"inactive: -1.14% [at 11.4 µM, scaled: untreated 0%, proteasome inhibitor 100%]",
c1ccc(C(c2ccccc2)N2CCC3(CCNCC3)CC2)cc1,"inactive: 3.79% [at 11.4 µM, scaled: untreated 0%, proteasome inhibitor 100%]",
